{
  "source": "PubChem BioAssay AID504332",
  "about": "(National Center for Advancing Translational Sciences (NCATS), 2011)",
  "note": "Hit rate of the full screen: of about 350,000 compounds, about 31,000 (8.9%) were called active. Inconclusive results, whose numbers are uncertain, are shown with a selection of clear calls. The call rests on the fitted dose curve; in most records, active means well fitted inhibition curve with a large enough effect; inconclusive means small, poorly fitted or top-dose-only effect; inactive means no such curve, though single readings can be large or run the other way. A potency beside an inconclusive call is a rough fit, not a confirmed value. On the % scale 0 is the no-effect control and ±100 the full control effect; potency means the concentration at half of the fitted maximal effect; tags describe the fitted curve by direction and shape.",
  "data": [
    {"target": "Histone-lysine N-methyltransferase EHMT2 (Homo sapiens) (UniProt Q96KQ7)", "sequence (Q96KQ7 whole entry, looked up)": "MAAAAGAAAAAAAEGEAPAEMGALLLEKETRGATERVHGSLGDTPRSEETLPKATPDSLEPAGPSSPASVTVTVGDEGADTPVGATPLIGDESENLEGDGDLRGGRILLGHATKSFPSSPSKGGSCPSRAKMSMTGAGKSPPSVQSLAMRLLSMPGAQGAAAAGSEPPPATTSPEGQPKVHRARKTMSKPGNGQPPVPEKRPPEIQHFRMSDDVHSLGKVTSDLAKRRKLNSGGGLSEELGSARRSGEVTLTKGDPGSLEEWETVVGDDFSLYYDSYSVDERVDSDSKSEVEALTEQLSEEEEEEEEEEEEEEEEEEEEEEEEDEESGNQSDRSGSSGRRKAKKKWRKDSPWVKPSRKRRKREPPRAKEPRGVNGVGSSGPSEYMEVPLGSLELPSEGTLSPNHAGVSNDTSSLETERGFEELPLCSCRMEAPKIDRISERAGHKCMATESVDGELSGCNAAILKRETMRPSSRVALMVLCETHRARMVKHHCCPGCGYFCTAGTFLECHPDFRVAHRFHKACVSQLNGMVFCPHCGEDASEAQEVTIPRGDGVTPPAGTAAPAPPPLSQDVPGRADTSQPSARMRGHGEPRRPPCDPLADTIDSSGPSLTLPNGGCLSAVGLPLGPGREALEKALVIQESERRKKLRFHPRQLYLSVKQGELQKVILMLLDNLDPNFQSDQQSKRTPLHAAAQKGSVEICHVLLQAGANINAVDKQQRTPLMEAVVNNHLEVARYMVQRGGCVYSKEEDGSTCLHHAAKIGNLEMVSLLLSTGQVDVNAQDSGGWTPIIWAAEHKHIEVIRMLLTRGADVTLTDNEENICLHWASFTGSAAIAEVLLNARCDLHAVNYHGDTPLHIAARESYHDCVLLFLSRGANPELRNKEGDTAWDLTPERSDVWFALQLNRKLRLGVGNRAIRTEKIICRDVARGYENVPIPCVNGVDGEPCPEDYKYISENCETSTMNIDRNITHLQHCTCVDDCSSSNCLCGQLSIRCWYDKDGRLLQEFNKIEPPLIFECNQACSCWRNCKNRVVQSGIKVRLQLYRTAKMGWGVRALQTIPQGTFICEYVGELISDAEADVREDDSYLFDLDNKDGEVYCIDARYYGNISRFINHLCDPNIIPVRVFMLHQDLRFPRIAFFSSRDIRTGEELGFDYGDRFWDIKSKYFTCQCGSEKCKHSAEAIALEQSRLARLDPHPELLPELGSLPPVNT", "assay": "qHTS Assay for Inhibitors of Histone Lysine Methyltransferase G9a; further: nearly all actives have a fitted effect of over 75% in size", "settings": "G9a H3K9 monomethylation, AlphaScreen, 2 h; activity, negative = inhibition: at 59 µM (top of the series) unless noted", "summary_of_the_method": "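Readings reflect AlphaScreen signal from monomethyl-H3K9 antibody detection. HMT at 20 nM; substrate b-H3K9 500 nM; cofactor SAM 20 uM; 2 h RT reaction; compounds tested as titrations in qHTS with 15 min preincubation.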", "values": [
      {"smiles": "CSCC[C@H](NC(=O)[C@H](Cc1ccccc1)NC[C@@H](NC[C@@H](N)CS)C(C)C)C(=O)O", "Potency": "active: 20 µM"},
      {"smiles": "CCN(CC)c1ccc(/C=N/N2CCOCC2)cc1", "Potency": "active: 11.2 µM"},
      {"smiles": "CC(C)(C)NC(=O)c1cccc(NC(=O)Cc2cccs2)c1", "Potency": "inconclusive: 89.1 µM [inhibitor, partial curve, poor fit]"},
      {"smiles": "CCN(CC(=O)Nc1cc(Cl)ccc1-n1cncn1)Cc1nc2ccccc2c(=O)[nH]1", "Potency": "inconclusive: 39.8 µM [inhibitor, single point]"},
      {"smiles": "CCCCc1c(C)c(C#N)c2[nH]c3ccccc3n2c1=O", "activity, negative = inhibition": "inactive: -36.1%"},
      {"smiles": "O=C(CCN1C(=O)/C(=C/c2ccccc2Cl)SC1=S)Nc1ccccn1", "Potency": "active: 7.94 µM"},
      {"smiles": "O=C(c1cc(Br)c[nH]1)N1CCSCC1", "activity, negative = inhibition": "inactive: 22.3% [at 102 µM]"},
      {"smiles": "COc1cc(C(=S)N2CCCCC2)ccc1O", "Potency": "active: 50.1 µM"},
      {"smiles": "CN(C)CCOc1ccccc1-c1ccccc1", "activity, negative = inhibition": "inactive: -40.7% [at 2.33 µM]"},
      {"smiles": "N=C1N(/N=C/c2ccccc2)C(=Nc2ccccc2)C(=S)N1c1ccccc1", "Potency": "active: 10 µM"},
      {"smiles": "Cc1ccnc(SCC(=O)c2cccc([N+](=O)[O-])c2)n1", "Potency": "active: 22.4 µM"},
      {"smiles": "CCCc1nc(-c2ccccc2)c(-c2ccc(OC)c(OC)c2)c(=O)[nH]1", "activity, negative = inhibition": "inactive: 0.959% [at 102 µM]"},
      {"smiles": "C=CCn1c(=S)[nH]c2cc(C(=O)NCCc3ccc(S(N)(=O)=O)cc3)ccc2c1=O", "Potency": "inconclusive: 7.08 µM [inhibitor, single point]"},
      {"smiles": "Cc1ccc(Cl)cc1N(CC(=O)NC1CCCCC1)S(C)(=O)=O", "Potency": "inconclusive: 31.6 µM [inhibitor, single point]"},
      {"smiles": "O=C(O)CSc1cccc[n+]1[O-]", "Potency": "inconclusive: 20 µM [inhibitor, single point]"},
      {"smiles": "Cc1cccc(N2CC(c3nc4ccccc4n3C)CC2=O)c1C", "note": "(configuration not stated)", "activity, negative = inhibition": "inactive: 19.9% [at 102 µM]"},
      {"smiles": "CNS(=O)(=O)c1cn(CC(=O)N2CCN(c3ccccc3F)CC2)cc1S(=O)(=O)NC", "Potency": "inconclusive: 3.98 µM [inhibitor, partial curve, poor fit]"},
      {"smiles": "Cc1c(-c2ccc(F)cc2)nc(N)c(C#N)c1-c1ccco1", "Potency": "inconclusive: 56.2 µM [inhibitor, partial curve, poor fit]"},
      {"smiles": "Cc1ccc(NC(=O)/C=C\\C(=O)NCC(=O)O)cc1C", "Potency": "inconclusive: 28.2 µM [inhibitor, single point]"},
      {"smiles": "CSc1nc2ccc(NC(=O)c3ccco3)cc2s1", "activity, negative = inhibition": "inactive: -11% [at 102 µM]"},
      {"smiles": "COc1cccc(C2=C(C(C)=O)Sc3nncn3N2C(C)=O)c1", "Potency": "inconclusive: 15.8 µM [inhibitor, partial curve]"},
      {"smiles": "O=C(NNC(=S)Nc1ccc(Br)cc1)c1ccccc1Br", "Potency": "active: 7.94 µM"},
      {"smiles": "COC(=O)c1ccc(N=c2sc(C(=O)OC)cc(=O)n2C)cc1", "Potency": "inconclusive: 35.5 µM [inhibitor, partial curve, poor fit]"},
      {"smiles": "COc1ccc(C(=O)O)cc1S(=O)(=O)Nc1ccccc1-c1ccccc1", "Potency": "inconclusive: 22.4 µM [inhibitor, partial curve, poor fit]"},
      {"smiles": "CCC(=O)NN1CCc2cc3ccc(C)cc3nc21", "activity, negative = inhibition": "inactive: 28.2% [at 102 µM]"},
      {"smiles": "O=C1C=C(Nc2ccccc2O)c2ccccc2C1=O", "Potency": "active: 44.7 µM"},
      {"smiles": "CC[C@@H](C)[C@H]1O[C@]2(CC[C@H]1C)C[C@@H]1C[C@@H](CC=C(C)[C@@H](O[C@H]3C[C@H](OC)[C@@H](O[C@H]4C[C@H](OC)[C@@H](O)[C@H](C)O4)[C@H](C)O3)[C@@H](C)C=CC=C3CO[C@@H]4[C@H](O)C(C)=C[C@@H](C(=O)O1)[C@]34O)O2", "activity, negative = inhibition": "inactive: 28.6%"},
      {"smiles": "Cc1ccc(C2(C)NC(=O)N(CC(=O)NCCC3=CCCCC3)C2=O)cc1", "note": "(configuration not stated)", "Potency": "inconclusive: 20 µM [inhibitor, partial curve, poor fit]"},
      {"smiles": "C/C=C/c1ccc(OCC(=O)N(CCOC)c2c(N)n(CCCC)c(=O)[nH]c2=O)c(OC)c1", "Potency": "inconclusive: 56.2 µM [inhibitor, partial curve]"},
      {"smiles": "CCOC(=O)C1=C(O)/C(=C\\c2cc(C)n(-c3ccc(F)cc3)c2C)N=C1C", "Potency": "inconclusive: 31.6 µM [inhibitor, single point]"},
      {"smiles": "Cc1cccc(-c2nc3c(c(SCC(=O)N4CCOCC4)n2)Cc2c(CO)cnc(C)c2O3)c1", "Potency": "active: 44.7 µM"},
      {"smiles": "CN(CC(=O)Nc1cccc(F)c1)C(=O)CN1c2cccc3cccc(c23)S1(=O)=O", "Potency": "inconclusive: 25.1 µM [inhibitor, single point]"},
      {"smiles": "O=C(NCCc1ccccc1F)c1cccc2cccnc12", "Potency": "inconclusive: 89.1 µM [inhibitor, single point]"},
      {"smiles": "COc1ccc(NC(=O)C(c2ccc(C)cc2)N(C)C(=O)/C=C\\c2ccc3c(c2)OCO3)cc1", "note": "(configuration not stated)", "activity, negative = inhibition": "inactive: -42.5%"},
      {"smiles": "Cc1ccc(OCC(=O)Nc2nnc(S(=O)(=O)N3CCCCC3)s2)cc1", "Potency": "active: 79.4 µM"},
      {"smiles": "Cc1ccc(NC2CCCN(C(=O)c3cccc(-c4ncc[nH]4)c3)C2)cc1C", "note": "(configuration not stated)", "Potency": "inconclusive: 56.2 µM [inhibitor, partial curve, poor fit]"},
      {"smiles": "COc1ccc(C2NC(c3ccc(OC)cc3OC)C(C)C(=O)C2C)c(OC)c1", "note": "(configuration not stated)", "Potency": "active: 3.55 µM"},
      {"smiles": "CC1CCCCC1NC(=O)COC(=O)c1ccc2c(c1Cl)C(=O)c1ccccc1C2=O", "note": "(configuration not stated)", "activity, negative = inhibition": "inactive: -4.99%"},
      {"smiles": "O=C(CNC1CCCC1)Nc1cc(Cl)ccc1[N+](=O)[O-]", "Potency": "active: 44.7 µM"},
      {"smiles": "COc1ccc2oc(C(=O)OCC(=O)N(CC(C)C)c3c(N)n(Cc4ccccc4)c(=O)[nH]c3=O)c(C)c2c1", "Potency": "active: 39.8 µM"},
      {"smiles": "CS(=O)(=O)c1ccc(Cl)c(NC(=O)COc2ccc3c(c2)CCC3)c1", "Potency": "inconclusive: 11.2 µM [inhibitor, partial curve, poor fit]"},
      {"smiles": "OC(CN1CCN(c2ccccn2)CC1)Cn1c2ccc(Cl)cc2c2cc(Cl)ccc21", "note": "(configuration not stated)", "activity, negative = inhibition": "inactive: -4.37%"},
      {"smiles": "O=C(CSc1nnc(-c2cccnc2)o1)c1cc2ccccc2oc1=O", "Potency": "inconclusive: 2.51 µM [inhibitor, partial curve, poor fit]"},
      {"smiles": "Cc1cc(N=Cc2c(O)ccc3cc(Br)ccc23)no1", "Potency": "active: 1.41 µM"},
      {"smiles": "O=C(NCCOc1ccc(Cl)cc1)c1ccco1", "activity, negative = inhibition": "inactive: 6.72% [at 102 µM]"},
      {"smiles": "COc1cc(O)oc1C=Nc1ccc(Cl)cc1Cl", "activity, negative = inhibition": "inconclusive: -53.1% [inhibitor]"},
      {"smiles": "CCc1ccc(NC(=O)C(C)OC(=O)c2ccc(-n3cnnn3)cc2)cc1", "note": "(configuration not stated)", "Potency": "inconclusive: 89.1 µM [inhibitor, partial curve, poor fit]"},
      {"smiles": "COc1cccc(CN2CCN(C3CCN(c4ccccc4C)CC3)CC2CCO)c1", "note": "(configuration not stated)", "activity, negative = inhibition": "inactive: 10.2% [at 0.501 µM]"},
      {"smiles": "COc1ccc(N(CC(=O)N2CCOCC2)S(C)(=O)=O)c(OC)c1", "activity, negative = inhibition": "inactive: 2.76% [at 102 µM]"},
      {"smiles": "COc1ccc(N2CCN(C3CCCN(C(=O)CN4CCOC4=O)C3)CC2)cc1", "note": "(configuration not stated)", "activity, negative = inhibition": "inactive: -11.3% [at 102 µM]"},
      {"smiles": "O=C(/C=C/c1ccccn1)c1cc(Br)ccc1O", "Potency": "inconclusive: 50.1 µM [inhibitor, partial curve, poor fit]"},
      {"smiles": "CCOc1ccc2cc(C#N)c(SCC(=O)N3CCOCC3)nc2c1", "Potency": "active: 50.1 µM"},
      {"smiles": "CCOC(=O)c1ccccc1NC(=O)CSc1ncc(CO)n1Cc1ccc(C)cc1", "activity, negative = inhibition": "inactive: -36.7%"},
      {"smiles": "Cc1cc(C)n(-c2nncn2NC(=O)c2ccc(Cl)cc2O)n1", "Potency": "inconclusive: 2.24 µM [inhibitor, full curve, poor fit]"},
      {"smiles": "Cc1ccc(/C=C(\\C#N)C(=O)Nc2c(C)cccc2C)s1", "Potency": "inconclusive: 89.1 µM [inhibitor, single point]"},
      {"smiles": "CCOc1ccc(-c2nonc2NC(=O)c2oc3ccc(F)cc3c2C)cc1", "activity, negative = inhibition": "inactive: 2.74%"},
      {"smiles": "O=C(Nc1ccc2oc(=O)ccc2c1)c1ccc(-c2cccc([N+](=O)[O-])c2)o1", "Potency": "inconclusive: 7.94 µM [inhibitor, partial curve, poor fit]"},
      {"smiles": "CCOC(=O)c1c(CSC(=N)N)n(-c2ccccc2)c2cc(Br)c(OC(C)=O)cc12", "Potency": "active: 50.1 µM"},
      {"smiles": "CCN1C(=O)CC(N2CCC(Nc3ccc(F)cc3)CC2)C1=O", "note": "(configuration not stated)", "activity, negative = inhibition": "inactive: 11.6%"},
      {"smiles": "CSc1cccc(NC(=S)N2CCCN(Cc3ccc(F)cc3)C2)c1", "Potency": "inconclusive: 31.6 µM [inhibitor, partial curve]"},
      {"smiles": "C/C(=N\\NC(N)=S)c1cc(-c2ccccc2)c(-c2ccccc2)s1", "Potency": "inconclusive: 79.4 µM [inhibitor, partial curve, poor fit]"},
      {"smiles": "O=c1cc(-c2ccc(F)cc2F)[nH]c2ccc(F)cc12", "Potency": "inconclusive: 0.708 µM [inhibitor, full curve, poor fit]"},
      {"smiles": "COC(=O)c1ccccc1NC(=O)C1=CC(c2ccc(C)cc2)=NS(=O)(=O)N1C", "Potency": "active: 12.6 µM"},
      {"smiles": "C#C[C@@]1(O)CC[C@@H]2[C@@H]3CCC4=C(CCC(=O)C4)[C@H]3CC[C@]21C", "activity, negative = inhibition": "inactive: 19% [at 21.5 µM]"},
      {"smiles": "C/C(=N\\NC(=O)c1ccc(O)cc1)c1ccc(NC(=O)Cc2ccccc2)cc1", "Potency": "inconclusive: 25.1 µM [inhibitor, partial curve, poor fit]"},
      {"smiles": "O=C(NC(=S)Nc1ccccc1N1CCOCC1)c1ccc(Br)cc1", "Potency": "inconclusive: 10 µM [inhibitor, partial curve, poor fit]"},
      {"smiles": "COc1ccc(NC(=O)COC(=O)C2CCC2)cc1Cl", "activity, negative = inhibition": "inactive: 42.7% [at 102 µM]"},
      {"smiles": "O=C(c1c(F)cccc1F)N(Cc1ccccn1)C1CC1", "Potency": "inconclusive: 8.91 µM [inhibitor, partial curve, poor fit]"},
      {"smiles": "CCC(c1nnnn1Cc1ccccc1)N1CCN(C(=O)c2ccco2)CC1", "note": "(configuration not stated)", "Potency": "active: 79.4 µM"},
      {"smiles": "COc1ccc(C2CC3(CC(C)(C)NC(=S)N3)Oc3cc(O)cc(C)c32)cc1OC", "note": "(configuration not stated)", "Potency": "inconclusive: 63.1 µM [inhibitor, partial curve, poor fit]"},
      {"smiles": "CCN(CC)CCNc1nc(-c2ccccc2)c2c(c1C#N)CC(C)(C)OC2", "Potency": "inconclusive: 8.91 µM [inhibitor, single point]"},
      {"smiles": "O=C(c1cccc(F)c1)N1CCCC(C(=O)N2CCCCCC2)C1", "note": "(configuration not stated)", "activity, negative = inhibition": "inactive: 77.7% [at 102 µM]"}
    ]}
  ]
}
